Assay results as given in article PMC6602471.
The list shows a part of the results. At the low end of the ranking, values are background and their order means little.

Biological target: T1, ETS1 (UniProt P14921)
T1 sequence: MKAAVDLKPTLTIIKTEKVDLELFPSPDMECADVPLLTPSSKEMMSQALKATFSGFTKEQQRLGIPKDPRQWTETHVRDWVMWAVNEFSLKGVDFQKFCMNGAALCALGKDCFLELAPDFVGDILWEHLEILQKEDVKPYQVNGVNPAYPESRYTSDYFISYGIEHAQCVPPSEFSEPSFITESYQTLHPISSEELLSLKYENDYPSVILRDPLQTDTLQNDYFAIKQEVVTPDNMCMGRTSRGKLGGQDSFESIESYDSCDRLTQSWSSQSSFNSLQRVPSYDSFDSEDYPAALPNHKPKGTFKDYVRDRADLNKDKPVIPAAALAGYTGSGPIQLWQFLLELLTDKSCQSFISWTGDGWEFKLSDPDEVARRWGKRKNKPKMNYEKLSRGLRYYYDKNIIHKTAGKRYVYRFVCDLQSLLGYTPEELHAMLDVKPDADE
Experiment: custom PBM
Details: custom protein-binding microarray; buffer, salt, pH and temperature not stated; high values mean tight binding; double strand, one strand shown

Sequence | binding signal (log fluorescence intensity)
TGTCGGGTAAGGGAATGTAGATCACGTGAATGAAGAGTCTTGATTCGCTTGACGCTGCTG | 8.22
TGTCGGGTAAGGGAATGTAGATCACGTTAATGAAAAGTCTTGATTCGCTTGACGCTGCTG | 8.29
CACAATCTTTACAGTAATGTAGCACGCGTAACTCCTGTCTTGATTCGCTTGACGCTGCTG | 8.16
GCTGCTGCGGGGCATACCCCACCGGATGTGACCCCGGTCTTGATTCGCTTGACGCTGCTG | 10.3
CGGAAGTGTCGTAAACGTCGGCTATCCGGTTCTTCTGTCTTGATTCGCTTGACGCTGCTG | 8.79
CACAAATTTTACAGTAATGTAGCACGCGTAACTCCTGTCTTGATTCGCTTGACGCTGCTG | 8.1
TAAAGGGAAGACGTTTGTGGTAGTTCCGGGTATTAAGTCTTGATTCGCTTGACGCTGCTG | 8.3
CAGCATAGGACTTCTTCCCTGAAGCAATTGATACCCGTCTTGATTCGCTTGACGCTGCTG | 8.3
CGGAAGTGTCGGAAACGTCGGATATCCGGTTCTTCTGTCTTGATTCGCTTGACGCTGCTG | 12.8
GAGTATAGGATCCCATCCAACACACGTGTTAAAATGGTCTTGATTCGCTTGACGCTGCTG | 8.2
CTGGGACTTGACCCAACTCTGCCACGTGCGTCGTTTGTCTTGATTCGCTTGACGCTGCTG | 8.25
CAGCATAGGACTTCTTCCCTGAACCAATTGATAACCGTCTTGATTCGCTTGACGCTGCTG | 8.33
GCTGCTGCGGTGCATACCCCAACGGATGTGACCCCGGTCTTGATTCGCTTGACGCTGCTG | 8.26
TCCGGCTACCACCTCCACCCACTTCAGGCCTTGTAGGTCTTGATTCGCTTGACGCTGCTG | 8.32
CAGAATAGGACTTCTTCCCTGAAGCAATTGATAACCGTCTTGATTCGCTTGACGCTGCTG | 8.33
CTGGGAATTGACCCAACTCTGCCACGTGGGTCGTTTGTCTTGATTCGCTTGACGCTGCTG | 8.19
CTGTATAGGATCCCATCCAACACACGTGTTAAAATGGTCTTGATTCGCTTGACGCTGCTG | 8.4
CAGCATAGGACTTGTTCCCTGAAGCAATTGATAACCGTCTTGATTCGCTTGACGCTGCTG | 8.34
GATTAATTTCTGCCCTTGTTCGCACGTGCCATAACAGTCTTGATTCGCTTGACGCTGCTG | 8.22
TCCGGCGACCAGCTCCACCCACTTCAGGCCTTGTAGGTCTTGATTCGCTTGACGCTGCTG | 8.23
TGGAAGTGTCGTAAACGTCGGATATCCGGTTCTTCTGTCTTGATTCGCTTGACGCTGCTG | 11.9

Sequence | binding signal (log fluorescence intensity)
GTTTAATTTCTGCCCTTATTCGCACGTGCCATAACAGTCTTGATTCGCTTGACGCTGCTG | 8.04
GCTGCTGCGGTGCATACCCCACCGGAGGTGACCCCGGTCTTGATTCGCTTGACGCTGCTG | 8.31
TCCGGCTACCAGCTCCACCCACTTCAGGCCTAGTAGGTCTTGATTCGCTTGACGCTGCTG | 8.18
TATTAATTTCTGCCCTTATTCGCACGTGCCATAACAGTCTTGATTCGCTTGACGCTGCTG | 8.25
CTGGGACTTGACCCAACTCTGCCACGTGGGACGTTTGTCTTGATTCGCTTGACGCTGCTG | 8.08
GTGTATGGGATCCCATCCAACACACGTGTTAAAATGGTCTTGATTCGCTTGACGCTGCTG | 8.29
GCTGCTGCGGTGCATACCCCACCGGATGTGACCCTGGTCTTGATTCGCTTGACGCTGCTG | 10.1
GGAAAAAGGCACAGGGTAACACCGGAAGTGGGCTTAGTCTTGATTCGCTTGACGCTGCTG | 12.1
TACTGACTTATATATGCGAATGCTCATGAATAGACCGTCTTGATTCGCTTGACGCTGCTG | 8.09
TGTCGGGTAAGGGAATGTCGATCACGTGAATGAAAAGTCTTGATTCGCTTGACGCTGCTG | 8.08
TCCGGCTACGAGCTCCACCCACTTCAGGCCTTGTAGGTCTTGATTCGCTTGACGCTGCTG | 8.39
GCTGCTGCAGTGCATACCCCACCGGATGTGACCCCGGTCTTGATTCGCTTGACGCTGCTG | 10.2
TAAAGGGAAGACGGTTGTGGTAGTTCCGGGAATTAAGTCTTGATTCGCTTGACGCTGCTG | 8.53
CGGAAGTGTCGTAAAAGTCGGATATCCGGTTCTTCTGTCTTGATTCGCTTGACGCTGCTG | 12.1
CGGAAGTGTCGTAAACGTCGGATATCCGGTGCTTCTGTCTTGATTCGCTTGACGCTGCTG | 11.9
TACTGACTTATATAGGCGAATGCACATGAATAGACCGTCTTGATTCGCTTGACGCTGCTG | 8.31
CTGGGACTTGACCCAACTATGCCACGTGGGTCGTTTGTCTTGATTCGCTTGACGCTGCTG | 8.18
GATTAATTTCTGCCCTTATTAGCACGTGCCATAACAGTCTTGATTCGCTTGACGCTGCTG | 8.19
TACTGACTTATATATGCGAATGCACATGAATTGACCGTCTTGATTCGCTTGACGCTGCTG | 8.29
TCCGGCTATCAGCTCCACCCACTTCAGGCCTTGTAGGTCTTGATTCGCTTGACGCTGCTG | 8.34
